Experimental data published in patent publication US9643971B2 (GALLEON PHARMACEUTICALS, INC., priority 2013, dated 2017).
The name of at least one read-out is uncertain.

Tested on: anesthetized rat
Test: Anesthetized rat spirometry screening assay
Type: in vivo
Details: peak minute ventilation increase; urethane-anesthetized rat, i.v. bolus, screening doses 0.1 and 0.3 mg/kg
From the text: Effect of Compounds of the Invention on Respiratory Rate (RR), Tidal Volume (VT), and the Product Minute Volume Using an Anesthetized Rat Spirometry Screening Assay
Anesthetized rats provide a quick method of screening compounds for respiratory and cardiovascular activity. In contrast to the conscious rat model, this model offers an experimental set up with less variation in the baseline cardiovascular and respiratory measures. Compounds screened in this assay may be examined in a conscious rat model.
Rats were initially anesthetized with 3% isoflurane (inhaled) and femoral artery and vein cannulas were surgically inserted. Once cannulated, the rats were transitioned to urethane anesthesia (1.5 g/kg; i.v.) and a tracheal cut-down was performed. After placing the tracheal cannula, it was connected to a pneumotachometer to record respiratory airflow from which respiratory rate (RR), tidal volume (VT), and their product minute volume were derived. After the surgical preparation was complete, animals were allowed to stabilize for 30 minutes while respiratory rate, tidal volume, minute volume, blood pressure and heart rate were recorded continuously. Arterial blood gases (ABG) were obtained from arterial blood collected from the femoral artery. ABG measurements were taken before and 6 minutes after vehicle and each dose of compound administered. Compounds being screened were administered via bolus injections through the venous cannula followed by a saline flush (total time of administration is approximately 30 seconds), and the animal was monitored for at least 6 minutes for changes in cardiovascular efforts. Compounds were prepared in formulations identified to ensure optimal solubility. As such, vehicle controls were matched for the formulation of each compound tested. Dosing of the compound being screened was 0.1 and 0.3 mg/kg. The next dose was not administered until all cardiovascular and respiratory measures had returned to baseline levels. The positive control compounds used were N-[4,6-di-(n-propylamino)-[1,3,5]triazin-2-yl]-N,O-dimethyl-hydroxylamine or N-[2,6-di-(n-propylamino)-[1,3]pyrimidin-4-yl]-N,O-dimethyl-hydroxylamine (both administered at the end of each screening experiment (0.3 mg/kg dose) to validate the experiment and also to serve as a measure with which the compound being screened could be compared.
Data were analyzed by collecting cardiovascular and respiratory data in 30 second averages (BINs). Data were plotted 2 minutes before challenge and then 6 minutes after challenge.

Structure (SMILES) | VE Peak (% Inc.)
C=CCNc1nc(NC)c2nc(NCC=C)nc(NC)c2n1.Cl [Compound 89a, N^2,N^6-Diallyl-N^4,N^8-dimethyl-pyrimido[5,4-d]pyrimidine-2,4,6,8-tetraamine hydrochloride] | 169
CNc1nc(N(C)NC)nc2c(NC)nc(N(C)NC)nc12 [Compound 91, 2,6-bis-(N,N′-dimethyl-hydrazino)-N^4,N^8-dimethyl-pyrimido[5,4-d]pyrimidine-4,8-diamine] | 9
CNc1nc(N(C)NC)nc2c(NC)nc(N(C)C)nc12 [Compound 93a, 6-(N,N′-Dimethyl-hydrazino)-N^2,N^2,N^4,N^8-tetramethyl-pyrimido[5,4-d]pyrimidine-2,4,8-triamine] | 7
CCCNc1nc(NC)c2nc(OCCC)nc(NC)c2n1 [Compound 95a, N^4,N^8-Dimethyl-6-propoxy-N^2-n-propyl-pyrimido[5,4-d]pyrimidine-2,4,8-triamine] | 115
CCCNc1nc(NC)c2nc(SCCC)nc(NC)c2n1 [Compound 97a, N^4,N^8-Dimethyl-N^2-n-propyl-6-propylsulfanyl-pyrimido[5,4-d]pyrimidine-2,4,8-triamine] | 38
CCCNc1nc(NC)c2nc(OCc3ccccc3)nc(NC)c2n1 [Compound 99a, 6-Benzyloxy-N^4,N^8-Dimethyl-N^2-n-propyl-pyrimido[5,4-d]pyrimidine-2,4,8-triamine] | 24
CCCNc1nc(NC)c2nc(O)nc(NC)c2n1 [Compound 101, 4,8-Bis-methylamino-6-propylamino-pyrimido[5,4-d]pyrimidin-2-ol] | 3
CCCNc1nc(NC)c2nc(C#N)nc(NC)c2n1 [Compound 103a, 4,8-Bis-methylamino-6-n-propylamino-pyrimido[5,4-d]pyrimidine-2-carbonitrile] | 0
CCCNc1nc(NC)c2nc(CN)nc(NC)c2n1 [Compound 105a, N^4,N^8-Dimethyl-N^2-n-propyl-6-(aminomethyl)-pyrimido[5,4-d]pyrimidine-2,4,8-triamine] | 7
CCCNc1nc(NC)c2nc(C(N)=O)nc(NC)c2n1 [Compound 107a, 6-Carbamoyl-N^4,N^8-dimethyl-N^2-n-propyl-pyrimido[5,4-d]pyrimidine-2,4,8-triamine] | 0
CCCNc1nc(NC)c2nc(C(=O)O)nc(NC)c2n1 [Compound 108, 4,8-Bis-methylamino-6-n-propylamino-pyrimido[5,4-d]pyrimidine-2-carboxylic acid] | 11
CCCNc1nc(NC)c2nc(-c3ccc(F)cc3)nc(NC)c2n1 [Compound 112a, N^4,N^8-Dimethyl-N^2-n-Propyl-6-(4-fluorophenyl)-pyrimido[5,4-d]pyrimidine-2,4,8-triamine] | 20
CCCNc1nc(-c2ccc(F)cc2)nc2c(NCCC)nc(NC)nc12 [Compound 114a, N^2-Methyl-N^4,N^8-di-n-propyl-6-(4-fluoro-phenyl)-pyrimido[5,4-d]pyrimidine-2,4,8-triamine] | 6
CCCNc1nc(NC)c2ncnc(NC)c2n1 [Compound 116a, N^4,N^8-Dimethyl-N^2-n-propyl-pyrimido[5,4-d]pyrimidine-2,4,8-triamine] | 0
CCCCc1nc(NCCC)c2nc(NC)nc(NCCC)c2n1 [Compound 118a, 6-n-Butyl-N^2-methyl-N^4,N^8-di-n-propyl-pyrimido[5,4-d]pyrimidine-2,4,8-triamine] | 5
CCCNc1nc(OC)nc2c(NCCC)nc(NC)nc12 [Compound 120a, 6-Methoxy-N^2-methyl-N^4,N^8-di-n-propyl-pyrimido[5,4-d]pyrimidine-2,4,8-triamine] | 70
CCCNc1nc(NC)nc2c(NCCC)nc(C#N)nc12 [Compound 122a, 6-Methylamino-4,8-bis-n-propylamino-pyrimido[5,4-d]pyrimidine-2-carbonitrile] | 6
CCNc1nc(NCC)c2nc(NCC)nc(NCC)c2n1.Cl [Compound 125a, N^2,N^4,N^6,N^8-Tetraethyl-pyrimido[5,4-d]pyrimidine-2,4,6,8-tetraamine hydrochloride] | 133
CCCNc1nc(NCC)c2nc(NCCC)nc(NCC)c2n1 [Compound 127a, N^4,N^8-Diethyl-N^2,N^6-di-n-propyl-pyrimido[5,4-d]pyrimidine-2,4,6,8-tetraamine] | 125
CCNc1nc(NCC2CC2)nc2c(NCC)nc(NCC3CC3)nc12 [Compound 129a, N^2,N^6-Bis-cyclopropylmethyl-N^4,N^8-diethyl-pyrimido[5,4-d]pyrimidine-2,4,6,8-tetraamine] | 21
CCNc1nc(NCC2CC2)c2nc(N(CC)CC)nc(NCC3CC3)c2n1.Cl [Compound 135a, N^2,N^2,N^6-Triethyl-N^4,N^8-bis-cyclopropylmethyl-pyrimido[5,4-d]pyrimidine-2,4,6,8-tetraamine hydrochloride] | 0
CCCNc1nc(NCC)nc2c(NCCC)nc(NCC)nc12 [Compound 137a, N^2,N^6-Diethyl-N^4,N^8-di-n-propyl-pyrimido[5,4-d]pyrimidine-2,4,6,8-tetraamine] | 197
CCCNc1nc(NC2CC2)nc2c(NCCC)nc(NC3CC3)nc12 [Compound 138, N^2,N^6-Dicyclopropyl-N^4,N^8-di-n-propyl-pyrimido[5,4-d]pyrimidine-2,4,6,8-tetraamine] | 77
CCCNc1nc(N(C)C)nc2c(NCCC)nc(N(C)C)nc12 [Compound 142a, N^2,N^2,N^6,N^6-Tetramethyl-N^4,N^8-di-n-propyl-pyrimido[5,4-d]pyrimidine-2,4,6,8-tetraamine] | 5
C=CCNc1nc(NC)nc2c(NCC=C)nc(NC)nc12.Cl [Compound 145a, N^4,N^8-Diallyl-N^2,N^6-dimethyl-pyrimido[5,4-d]pyrimidine-2,4,6,8-tetraamine hydrochloride] | 146
C=CCNc1nc(NCC=C)c2nc(N3CCN(Cc4ccc(F)cc4)CC3)nc(NCC=C)c2n1.Cl.Cl [Compound 148a, N^2,N^4,N^8-Triallyl-6-[4-(4-fluorobenzyl)-piperazin-1-yl]-pyrimido[5,4-d]pyrimidine-2,4,8-triamine dihydrochloride] | 0
C=CCNc1nc(NCC=C)c2nc(N3CCN(C(c4ccc(F)cc4)c4ccc(F)cc4)CC3)nc(NCC=C)c2n1 [Compound 150a, N^2,N^4,N^8-Triallyl-6-{4-[bis-(4-fluorophenyl)-methyl]-piperazin-1-yl}-pyrimido[5,4-d]pyrimidine-2,4,8-triamine] | 0
CCCNc1nc(N(CC)CC)nc2c(NCCC)nc(NCC)nc12 [Compound 152a, N^2,N^2,N^6-Triethyl-N^4,N^8-di-n-propyl-pyrimido[5,4-d]pyrimidine-2,4,6,8-tetraamine] | 1
CCCNc1nc(NC)c2nc(NCC(=O)O)nc(NC)c2n1 [Compound 154, (4,8-bis-methylamino-6-n-propylamino-pyrimido[5,4-d]pyrimidin-2-ylamino)-acetic acid] | 0
CCCNC(=O)CNc1nc(NC)c2nc(NCCC)nc(NC)c2n1.Cl [Compound 157a, N-n-Propyl-[2-(4,8-bis-methylamino-6-propylamino-pyrimido[5,4-d]pyrimidin-2-ylamino)]-acetamide hydrochloride] | 5
